# Assay results taken from the supplement of paper PMC7411054.
# This is a selection; strong and weak results do not stand in their true shares.
# Assays:
# Experiment in all cases: lowest phenotypically active concentration; higher = less potent
# Conditions in all cases: treatment time: 24 h
# [1] = system: A549-ACTB-RAB5A
# Summary of the method: (§1)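 Live-cell features were measured per well and normalised to solvent control wells after fifteen gene-edited A549, HepG2 and WPMY1 reporter lines had been treated for 24 h at 0.3, 1, 3 or 9 µM in four wells each. A condition was deviating when ≥3 of 4 wells sat beyond the 95th percentile of control Euclidean distances. It was reproducible when the median replicate Pearson correlation exceeded the 95th percentile of non-replicates. Phenotypic activity demanded both.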
# [2] = system: A549-CANX-COX4
# Summary of the method: as §1
# [3] = system: A549-GM130-SQSTM1
# Summary of the method: as §1
# [4] = system: A549-TP53BP1-CLTA
# Summary of the method: as §1
# [5] = system: A549-TUBA1B-RELA
# Summary of the method: as §1
# [6] = system: HepG2-ACTB-RAB5A
# Summary of the method: as §1
# [7] = system: HepG2-CANX-COX4
# Summary of the method: as §1
# [8] = system: HepG2-GM130-SQSTM1
# Summary of the method: as §1
# [9] = system: HepG2-TP53BP1-CLTA
# Summary of the method: as §1
# [10] = system: HepG2-TUBA1B-RELA
# Summary of the method: as §1
Structure (SMILES),lowest phenotypically active concentration [1],lowest phenotypically active concentration [2],lowest phenotypically active concentration [3],lowest phenotypically active concentration [4],lowest phenotypically active concentration [5],lowest phenotypically active concentration [6],lowest phenotypically active concentration [7],lowest phenotypically active concentration [8],lowest phenotypically active concentration [9],lowest phenotypically active concentration [10]
COc1cc(N2CCN(C(C)=O)CC2)ccc1Nc1ncc(Cl)c(Nc2ccc(N3CCN(C(C)=O)CC3)cc2OC)n1,9 µM,9 µM,3 µM,9 µM,3 µM,9 µM,9 µM,9 µM,9 µM,9 µM
O=C1NC(=O)c2c1c(-c1ccccc1)cc1[nH]c3ccc(O)cc3c21,≤ 0.3 µM,1 µM,1 µM,≤ 0.3 µM,≤ 0.3 µM,1 µM,≤ 0.3 µM,≤ 0.3 µM,≤ 0.3 µM,≤ 0.3 µM
